Source: publication PMC4528719, “Functional role of dimerization and CP190 interacting domains of CTCF protein in Drosophila melanogaster” (BMC Biology, 2015)
These are yes or no findings as the source states them, for the method shown. For some assays here: Binding seen in cells or lysates may run through a third protein. Some entries that bind do so weakly or less than the wild type. Sequences can lack the tags named with a protein.

Assays:
[1] = molecular target: T1, 3xFLAG-tagged N-terminal dCTCF-(nuclear localization signal)-LexA fusion protein (Drosophila melanogaster) (UniProt Q9VS55); assay: chromatin immunoprecipitation of a reporter to which a LexA fusion is tethered; S2 cells co-transfected with the 4xLexA-TATA reporter and the 3xFLAG-N-terminal dCTCF-NLS-LexA construct; formaldehyde-fixed chromatin precipitated with antibodies against the dCTCF C-terminus, dCTCF N-terminus, CP190 or FLAG
T1 sequence: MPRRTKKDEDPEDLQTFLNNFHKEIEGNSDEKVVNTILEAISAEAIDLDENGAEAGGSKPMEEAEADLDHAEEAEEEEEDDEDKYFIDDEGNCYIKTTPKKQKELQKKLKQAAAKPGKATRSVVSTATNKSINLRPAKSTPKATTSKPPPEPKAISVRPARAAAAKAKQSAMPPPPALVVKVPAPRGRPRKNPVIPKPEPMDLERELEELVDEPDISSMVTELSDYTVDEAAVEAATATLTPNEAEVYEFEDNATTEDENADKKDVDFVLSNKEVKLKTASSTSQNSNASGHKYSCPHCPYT

[2] = molecular target: T2, full-length CP190 (yeast two-hybrid) (Drosophila) (UniProt Q24478); assay: two-hybrid; yeast; dCTCF or its parts fused to GAL4 AD, CP190 or its sub-fragments fused to GAL4 DNA BD (Fig. 3b)
T2 sequence: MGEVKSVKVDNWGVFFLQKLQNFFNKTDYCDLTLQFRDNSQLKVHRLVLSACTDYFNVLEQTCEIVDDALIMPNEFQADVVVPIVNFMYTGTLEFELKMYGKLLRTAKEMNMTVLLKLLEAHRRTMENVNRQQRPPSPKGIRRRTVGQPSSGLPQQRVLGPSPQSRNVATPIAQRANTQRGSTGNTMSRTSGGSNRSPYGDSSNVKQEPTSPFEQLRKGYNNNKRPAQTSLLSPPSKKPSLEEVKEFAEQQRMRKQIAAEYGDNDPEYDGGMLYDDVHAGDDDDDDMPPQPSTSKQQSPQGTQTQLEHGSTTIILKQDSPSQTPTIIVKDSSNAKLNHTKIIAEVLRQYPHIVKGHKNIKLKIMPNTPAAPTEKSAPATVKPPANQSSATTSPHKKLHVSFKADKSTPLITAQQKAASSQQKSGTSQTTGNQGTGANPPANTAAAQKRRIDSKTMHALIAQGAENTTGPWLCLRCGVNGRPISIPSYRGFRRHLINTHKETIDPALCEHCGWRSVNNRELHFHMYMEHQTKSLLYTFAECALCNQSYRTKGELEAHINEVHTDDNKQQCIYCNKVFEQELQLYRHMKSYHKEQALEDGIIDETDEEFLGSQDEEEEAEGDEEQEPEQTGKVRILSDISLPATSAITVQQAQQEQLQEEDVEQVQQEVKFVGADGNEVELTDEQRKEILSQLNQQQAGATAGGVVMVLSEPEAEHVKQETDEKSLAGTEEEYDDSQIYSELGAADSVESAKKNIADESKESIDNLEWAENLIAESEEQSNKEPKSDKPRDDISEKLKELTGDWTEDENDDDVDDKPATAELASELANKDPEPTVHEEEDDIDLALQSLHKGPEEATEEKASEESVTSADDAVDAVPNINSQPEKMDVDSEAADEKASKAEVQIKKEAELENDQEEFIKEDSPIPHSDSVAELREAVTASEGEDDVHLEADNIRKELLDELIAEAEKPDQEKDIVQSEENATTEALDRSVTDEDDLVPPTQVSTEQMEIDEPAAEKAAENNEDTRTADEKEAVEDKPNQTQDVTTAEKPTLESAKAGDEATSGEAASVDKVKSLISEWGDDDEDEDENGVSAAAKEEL

[3] = molecular target: T3, CP190 from Drosophila S2 cells (Drosophila melanogaster (endogenous in S2 cells)) (UniProt Q24478); assay: co-IP; CP190 antibodies on Protein A or G beads, nuclear lysate of S2 cells expressing FLAG-tagged dCTCF forms, overnight +4 °C; washes with 500 mM NaCl
T3 sequence: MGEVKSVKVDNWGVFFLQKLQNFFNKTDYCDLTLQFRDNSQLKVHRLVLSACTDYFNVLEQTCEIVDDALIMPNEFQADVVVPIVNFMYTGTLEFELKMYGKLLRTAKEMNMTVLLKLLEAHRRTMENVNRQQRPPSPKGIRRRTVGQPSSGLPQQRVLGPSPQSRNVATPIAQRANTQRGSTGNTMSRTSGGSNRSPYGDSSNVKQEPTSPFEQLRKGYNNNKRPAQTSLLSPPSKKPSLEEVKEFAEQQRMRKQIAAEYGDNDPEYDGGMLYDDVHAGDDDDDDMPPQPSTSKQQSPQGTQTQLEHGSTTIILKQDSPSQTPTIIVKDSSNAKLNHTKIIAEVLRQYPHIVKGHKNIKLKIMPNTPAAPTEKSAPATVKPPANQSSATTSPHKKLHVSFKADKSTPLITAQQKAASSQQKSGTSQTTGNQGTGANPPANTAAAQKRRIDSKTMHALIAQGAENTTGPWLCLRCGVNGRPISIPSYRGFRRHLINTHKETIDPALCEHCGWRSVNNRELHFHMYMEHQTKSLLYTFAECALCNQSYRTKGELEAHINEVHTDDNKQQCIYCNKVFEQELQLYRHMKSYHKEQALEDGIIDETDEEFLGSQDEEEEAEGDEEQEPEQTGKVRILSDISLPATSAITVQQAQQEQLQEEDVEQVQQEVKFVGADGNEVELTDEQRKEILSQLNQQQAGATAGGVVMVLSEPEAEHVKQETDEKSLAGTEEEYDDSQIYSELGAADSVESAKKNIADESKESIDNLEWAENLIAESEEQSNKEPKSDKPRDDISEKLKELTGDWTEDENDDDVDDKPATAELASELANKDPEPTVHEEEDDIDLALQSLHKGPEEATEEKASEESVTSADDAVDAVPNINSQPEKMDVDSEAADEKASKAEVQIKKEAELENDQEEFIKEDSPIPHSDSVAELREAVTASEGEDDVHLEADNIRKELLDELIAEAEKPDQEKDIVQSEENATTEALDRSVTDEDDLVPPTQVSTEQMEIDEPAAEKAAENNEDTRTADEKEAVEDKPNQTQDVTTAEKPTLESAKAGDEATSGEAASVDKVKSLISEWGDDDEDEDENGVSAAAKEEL

B1: endogenous full-length dCTCF (protein, UniProt Q9VS55 1-818)
chain: MPRRTKKDEDPEDLQTFLNNFHKEIEGNSDEKVVNTILEAISAEAIDLDENGAEAGGSKPMEEAEADLDHAEEAEEEEEDDEDKYFIDDEGNCYIKTTPKKQKELQKKLKQAAAKPGKATRSVVSTATNKSINLRPAKSTPKATTSKPPPEPKAISVRPARAAAAKAKQSAMPPPPALVVKVPAPRGRPRKNPVIPKPEPMDLERELEELVDEPDISSMVTELSDYTVDEAAVEAATATLTPNEAEVYEFEDNATTEDENADKKDVDFVLSNKEVKLKTASSTSQNSNASGHKYSCPHCPYTASKKFLITRHSRSHDVEPSFKCSICERSFRSNVGLQNHINTHMGNKPHKCKLCESAFTTSGELVRHTRYKHTKEKPHKCTECTYASVELTKLRRHMTCHTGERPYQCPHCTYASQDMFKLKRHMVIHTGEKKYQCDICKSRFTQSNSLKAHKLIHSVVDKPVFQCNYCPTTCGRKADLRVHIKHMHTSDVPMTCRRCGQQLPDRYQYKLHVKSHEGEKCYSCKLCSYASVTQRHLASHMLIHLDEKPFHCDQCPQAFRQRQLLRRHMNLVHNEEYQPPEPREKLHKCPSCPREFTHKGNLMRHMETHDDSANAREKRRRLKLGRNVRLQKDGTVITLIKDQYVDMDRDQEENEEDDNPESYDLAEIEPENSEAEDADDDVETIVSDPIRQRIKPAPIIINKQARLAASEKQPMIINQRLRSQRGTKTFHIKEEPDNSDFTVEWQGDDGEVMVVELVNGDEEVLVKHEPSANSKISAKNCFGFEDDDDYEEYGDGENEVDGASQEFLQLMDMIEQDS
binding [1]: binds

B2: full-length dCTCF fused to the GAL4 activation domain (protein, UniProt Q9VS55 1-818)
chain: MPRRTKKDEDPEDLQTFLNNFHKEIEGNSDEKVVNTILEAISAEAIDLDENGAEAGGSKPMEEAEADLDHAEEAEEEEEDDEDKYFIDDEGNCYIKTTPKKQKELQKKLKQAAAKPGKATRSVVSTATNKSINLRPAKSTPKATTSKPPPEPKAISVRPARAAAAKAKQSAMPPPPALVVKVPAPRGRPRKNPVIPKPEPMDLERELEELVDEPDISSMVTELSDYTVDEAAVEAATATLTPNEAEVYEFEDNATTEDENADKKDVDFVLSNKEVKLKTASSTSQNSNASGHKYSCPHCPYTASKKFLITRHSRSHDVEPSFKCSICERSFRSNVGLQNHINTHMGNKPHKCKLCESAFTTSGELVRHTRYKHTKEKPHKCTECTYASVELTKLRRHMTCHTGERPYQCPHCTYASQDMFKLKRHMVIHTGEKKYQCDICKSRFTQSNSLKAHKLIHSVVDKPVFQCNYCPTTCGRKADLRVHIKHMHTSDVPMTCRRCGQQLPDRYQYKLHVKSHEGEKCYSCKLCSYASVTQRHLASHMLIHLDEKPFHCDQCPQAFRQRQLLRRHMNLVHNEEYQPPEPREKLHKCPSCPREFTHKGNLMRHMETHDDSANAREKRRRLKLGRNVRLQKDGTVITLIKDQYVDMDRDQEENEEDDNPESYDLAEIEPENSEAEDADDDVETIVSDPIRQRIKPAPIIINKQARLAASEKQPMIINQRLRSQRGTKTFHIKEEPDNSDFTVEWQGDDGEVMVVELVNGDEEVLVKHEPSANSKISAKNCFGFEDDDDYEEYGDGENEVDGASQEFLQLMDMIEQDS
binding [2]: binds

B3: FLAG-tagged wild-type dCTCF (protein, UniProt Q9VS55 1-818)
chain: MPRRTKKDEDPEDLQTFLNNFHKEIEGNSDEKVVNTILEAISAEAIDLDENGAEAGGSKPMEEAEADLDHAEEAEEEEEDDEDKYFIDDEGNCYIKTTPKKQKELQKKLKQAAAKPGKATRSVVSTATNKSINLRPAKSTPKATTSKPPPEPKAISVRPARAAAAKAKQSAMPPPPALVVKVPAPRGRPRKNPVIPKPEPMDLERELEELVDEPDISSMVTELSDYTVDEAAVEAATATLTPNEAEVYEFEDNATTEDENADKKDVDFVLSNKEVKLKTASSTSQNSNASGHKYSCPHCPYTASKKFLITRHSRSHDVEPSFKCSICERSFRSNVGLQNHINTHMGNKPHKCKLCESAFTTSGELVRHTRYKHTKEKPHKCTECTYASVELTKLRRHMTCHTGERPYQCPHCTYASQDMFKLKRHMVIHTGEKKYQCDICKSRFTQSNSLKAHKLIHSVVDKPVFQCNYCPTTCGRKADLRVHIKHMHTSDVPMTCRRCGQQLPDRYQYKLHVKSHEGEKCYSCKLCSYASVTQRHLASHMLIHLDEKPFHCDQCPQAFRQRQLLRRHMNLVHNEEYQPPEPREKLHKCPSCPREFTHKGNLMRHMETHDDSANAREKRRRLKLGRNVRLQKDGTVITLIKDQYVDMDRDQEENEEDDNPESYDLAEIEPENSEAEDADDDVETIVSDPIRQRIKPAPIIINKQARLAASEKQPMIINQRLRSQRGTKTFHIKEEPDNSDFTVEWQGDDGEVMVVELVNGDEEVLVKHEPSANSKISAKNCFGFEDDDDYEEYGDGENEVDGASQEFLQLMDMIEQDS
binding [3]: binds

B4: FLAG-tagged dCTCFΔ610-723 (protein, UniProt Q9VS55)
chain: MPRRTKKDEDPEDLQTFLNNFHKEIEGNSDEKVVNTILEAISAEAIDLDENGAEAGGSKPMEEAEADLDHAEEAEEEEEDDEDKYFIDDEGNCYIKTTPKKQKELQKKLKQAAAKPGKATRSVVSTATNKSINLRPAKSTPKATTSKPPPEPKAISVRPARAAAAKAKQSAMPPPPALVVKVPAPRGRPRKNPVIPKPEPMDLERELEELVDEPDISSMVTELSDYTVDEAAVEAATATLTPNEAEVYEFEDNATTEDENADKKDVDFVLSNKEVKLKTASSTSQNSNASGHKYSCPHCPYTASKKFLITRHSRSHDVEPSFKCSICERSFRSNVGLQNHINTHMGNKPHKCKLCESAFTTSGELVRHTRYKHTKEKPHKCTECTYASVELTKLRRHMTCHTGERPYQCPHCTYASQDMFKLKRHMVIHTGEKKYQCDICKSRFTQSNSLKAHKLIHSVVDKPVFQCNYCPTTCGRKADLRVHIKHMHTSDVPMTCRRCGQQLPDRYQYKLHVKSHEGEKCYSCKLCSYASVTQRHLASHMLIHLDEKPFHCDQCPQAFRQRQLLRRHMNLVHNEEYQPPEPREKLHKCPSCPREFTHKGNLMRHMETHQRGTKTFHIKEEPDNSDFTVEWQGDDGEVMVVELVNGDEEVLVKHEPSANSKISAKNCFGFEDDDDYEEYGDGENEVDGASQEFLQLMDMIEQDS
binding [3]: no binding

B5: FLAG-tagged dCTCFΔ774-818 (protein, UniProt Q9VS55)
chain: MPRRTKKDEDPEDLQTFLNNFHKEIEGNSDEKVVNTILEAISAEAIDLDENGAEAGGSKPMEEAEADLDHAEEAEEEEEDDEDKYFIDDEGNCYIKTTPKKQKELQKKLKQAAAKPGKATRSVVSTATNKSINLRPAKSTPKATTSKPPPEPKAISVRPARAAAAKAKQSAMPPPPALVVKVPAPRGRPRKNPVIPKPEPMDLERELEELVDEPDISSMVTELSDYTVDEAAVEAATATLTPNEAEVYEFEDNATTEDENADKKDVDFVLSNKEVKLKTASSTSQNSNASGHKYSCPHCPYTASKKFLITRHSRSHDVEPSFKCSICERSFRSNVGLQNHINTHMGNKPHKCKLCESAFTTSGELVRHTRYKHTKEKPHKCTECTYASVELTKLRRHMTCHTGERPYQCPHCTYASQDMFKLKRHMVIHTGEKKYQCDICKSRFTQSNSLKAHKLIHSVVDKPVFQCNYCPTTCGRKADLRVHIKHMHTSDVPMTCRRCGQQLPDRYQYKLHVKSHEGEKCYSCKLCSYASVTQRHLASHMLIHLDEKPFHCDQCPQAFRQRQLLRRHMNLVHNEEYQPPEPREKLHKCPSCPREFTHKGNLMRHMETHDDSANAREKRRRLKLGRNVRLQKDGTVITLIKDQYVDMDRDQEENEEDDNPESYDLAEIEPENSEAEDADDDVETIVSDPIRQRIKPAPIIINKQARLAASEKQPMIINQRLRSQRGTKTFHIKEEPDNSDFTVEWQGDDGEVMVVELVNGDEEVLVKHEPSAN
binding [3]: no binding
